# “And” between values parts separate entries of the source, which are not always exact repeats. Identical values can stand only once. The shares of active, inactive and inconclusive entries below differ from those in the screen. A call without a number means that no potency is given here. For part of these data: Potencies beside an inconclusive call are fits to weak or partial responses and may not hold up. The source made the active and inactive calls. Unless noted, the call rests on the fitted dose curve; in most records, active means well fitted curve in the direction sought with a large enough effect in the repeat runs; inconclusive means weak or mixed curves; inactive means no such curve, though single readings can be large; an effect the other way counts as inactive or inconclusive.
# Experiments:
# [1] = qHTS RealTime-Glo MT Cell Viability Assay in HEK293 cells - 8 hour (AID 1224887); settings: RealTime-Glo luminescence; series mostly up to 76.8 µM; further: top concentration of the series differs between compounds; nearly all actives have a fitted effect of over 50% in size
# Method in brief: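 Luminescence readout at each listed time point; HEK293, 600 cells/well, RealTime-Glo MT reagent added with cells; compounds pinned (23 nL in DMSO) after 5 h at 37 C; continuous culture at 37 C.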
# [2] = qHTS assay to identify small molecule antagonists of the estrogen receptor alpha (ER-alpha) signaling pathway using the BG1 cell line in the presence of 0.1 nM 17-beta-estradiol - cell viability counter screen (AID 1259241); settings: VM7Luc4E2 (BG1) viability, CellTiter-Fluor protease, 22 h, 0.1 nM estradiol agonist added; series mostly up to 92.4 µM; further: nearly all actives have a fitted effect of over 40% in size
# Method in brief: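 The cell line endogenously expresses full-length ER-alpha and carries four EREs driving luciferase. Cells are cultured 5 days hormone-free, treated 22 hr with compounds and 0.1 nM estradiol, then viability is read by fluorescence.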
# [3] = A CellTox Green Cytotoxicity Assay to monitor cytotoxicity in HEK293 cells - 16 hour (AID 1224888); settings: CellTox Green fluorescence; series mostly up to 76.8 µM; further: nearly all actives have a fitted effect of over 35% in size
# Method in brief: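 Read-out: fluorescence of a cell-impermeant cyanine dye staining DNA of dead cells, proportional to cytotoxicity. HEK293, 600 cells/well with reagent, compound (23 nL DMSO) added after 5 h; reads at 0, 8, 16, 24, 32, 40 h.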
# [4] = target: Estrogen receptor (Homo sapiens) (UniProt P03372); assay: qHTS assay to identify small molecule antagonists of the estrogen receptor alpha (ER-alpha) signaling pathway using the BG1 cell line in the presence of 0.1 nM 17-beta-estradiol (AID 1259244); settings: VM7Luc4E2 (BG1) ERE-luciferase, antagonist mode, 0.1 nM E2, 22 h; series mostly up to 92.4 µM; further: nearly all actives have a fitted effect of over 50% in size
# Sequence of UniProt P03372 (P03372 whole entry, looked up): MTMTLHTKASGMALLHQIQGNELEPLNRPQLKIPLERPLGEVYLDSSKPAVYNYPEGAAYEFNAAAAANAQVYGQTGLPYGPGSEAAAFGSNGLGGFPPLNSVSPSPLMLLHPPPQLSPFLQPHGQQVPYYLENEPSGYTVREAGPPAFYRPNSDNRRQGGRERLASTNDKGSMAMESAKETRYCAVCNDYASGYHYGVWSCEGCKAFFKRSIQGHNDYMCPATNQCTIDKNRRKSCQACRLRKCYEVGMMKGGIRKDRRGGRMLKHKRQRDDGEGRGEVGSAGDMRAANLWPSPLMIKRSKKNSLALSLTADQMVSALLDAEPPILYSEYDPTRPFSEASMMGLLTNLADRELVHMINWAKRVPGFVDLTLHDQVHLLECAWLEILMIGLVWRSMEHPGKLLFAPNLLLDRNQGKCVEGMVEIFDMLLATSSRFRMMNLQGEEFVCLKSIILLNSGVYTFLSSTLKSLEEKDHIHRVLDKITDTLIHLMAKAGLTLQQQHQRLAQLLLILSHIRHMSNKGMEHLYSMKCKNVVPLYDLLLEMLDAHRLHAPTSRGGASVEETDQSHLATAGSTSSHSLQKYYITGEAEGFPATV
# Method in brief: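 Luminescence after ONE-Glo (30 min, room temperature) measured ERE-luciferase activity in VM7Luc4E2 cells treated 22 h with compound and 0.1 nM final 17beta-estradiol as stimulator.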
# [5] = qHTS assay to identify small molecule antagonists of the sonic hedgehog signaling (Shh) pathway - cell viability counter screen (AID 1259367); settings: NIH/3T3 Gli1-Luc viability, CellTiter-Fluor, 24 h; series mostly up to 92.4 µM; further: nearly all actives have a fitted effect of over 55% in size
# Method in brief: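 Fluorescence read-out (CellTiter-Fluor, 1 hr at 37C) taken after 23 hr compound treatment of 3T3 Gli1-Luc cells stimulated with conditioned medium. Cells were seeded at 2,000 per well and pre-incubated 4 hr.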
# [6] = qHTS assay to test for compound auto fluorescence at 535 nm (green) in HepG2 cell free culture (AID 720686); settings: Cell-free medium, green autofluorescence 485/535 nm; further: potency means the concentration at half of the fitted maximal effect
# [7] = qHTS assay to test for compound auto fluorescence at 590 nm (red) in HepG2 cells (AID 720674); settings: HepG2 autofluorescence, red 540/590 nm, 1 h; series mostly up to 91.3 µM; further: potency means the concentration at half of the fitted maximal effect
# Method in brief: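 Fluorescence at 590 nm emission following 540 nm excitation was recorded from HepG2 wells one hour after compound transfer, with DMSO-only wells as vehicle and Rose Bengal sodium equivalency as the scale.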
# [8] = qHTS assay to test for compound auto fluorescence at 590 nm (red) in HEK293 cells (AID 720679); settings: red autofluorescence 540/590 nm; series mostly up to 46 µM; further: potency means the concentration at half of the fitted maximal effect
# Method in brief: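 HEK293 cells (2,000/well, medium with 10% dialyzed FBS) attached for 4-5 hr at 37C, received 23 nL compound and were incubated overnight at 37C, 5% CO2. Red fluorescence was then read at 540/590nm Ex/Em, referenced to Rose Bengal sodium.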
# [9] = qHTS assay to test for compound auto fluorescence at 590 nm (red) in HEK293 cell free culture (AID 720683); settings: cell-free medium autofluorescence, Ex540/Em590 red; further: potency means the concentration at half of the fitted maximal effect
# Method in brief: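 Cell-free wells of DMEM with 10% FBS received compound, and intrinsic fluorescence was read at excitation/emission 540/590 nm. Values expressed as equivalence to Rose Bengal sodium.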
# [10] = qHTS assay to test for compound auto fluorescence at 590 nm (red) in HepG2 cell free culture (AID 720684); settings: cell-free medium autofluorescence, red 540/590 nm; series mostly up to 91.3 µM; further: potency means the concentration at half of the fitted maximal effect
# Method in brief: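 Rose Bengal sodium served as the reference for red signal. Test compounds were dispensed into serum-containing MEM (10% FBS) without cells, and plates were read at 540/590 nm.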
# [11] = qHTS assay to identify small molecule HDAC inhibitors - cell viability counter screen (AID 1259365); settings: HCT-116 viability, CellTiter-Glo ATP luminescence, 2 h; series mostly up to 92.4 µM; further: nearly all actives have a fitted effect of over 50% in size
# Method in brief: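 Viability readout: CellTiter-Glo luminescence. Wild-type HCT-116 cells, 2hr compound treatment following overnight attachment at 37 C.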
# [12] = qHTS assay to identify small molecule antagonists of the TGF-beta/Smad signaling pathway - cell viability counter screen (AID 1346824); settings: SBE-bla HEK293T viability, CellTiter-Glo luminescence; series mostly up to 76.8 µM; further: potency means the concentration at half of the fitted maximal effect; nearly all actives have a fitted effect of over 50% in size
# Method in brief: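 SBE-bla HEK 293T cells, incubated overnight, then compound plus 0.25 ng/mL TGF-beta1 (stock added) for 5 hr at 37 C. Viability was read in the same wells by CellTiter-Glo luminescence after 30 min at room temperature.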
# [13] = qHTS assay to identify small molecule antagonists of the farnesoid-X-receptor (FXR) signaling pathway - cell viability counter screen (AID 743221; active means well fitted cell-killing curve with a large enough effect in the repeat runs, not every such curve was filed as active; inconclusive means weak or mixed curves, or effect the other way; inactive means no such curve, though single readings can be large or run the other way; further: nearly all actives have a fitted effect of over 50% in size); settings: FXR-bla HEK293T viability, CellTiter-Glo luminescence, 16 h; series mostly up to 62.6 µM
# Method in brief: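 Quantitative HTS of the Tox21 10K library run in parallel with the beta-lactamase reporter read. HEK 293T cells carrying a UAS-driven bla reporter got compound and 50 uM CDCA (final) for 16 h; ATP-based luminescence followed.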
# [14] = qHTS assay to identify small molecule agonists of the androgen receptor (AR) signaling pathway in the presence of an antagonist - cell viability counter screen (AID 1259379); settings: MDA-kb2 viability, CellTiter-Fluor, 16 h; series mostly up to 92.4 µM;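 further: MDA-kb2 human breast cancer cells carrying an MMTV luciferase reporter; nearly all actives have a fitted effect of over 25% in size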
# Method in brief: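 Viability counter screen: CellTiter-Fluor fluorescence, measured in the same wells as the luciferase read-out. MDA-kb2 cells, 3,000/well, with nilutamide at 3.0uM final and compounds at 15 concentrations, 16 hr at 37C, 0% CO2.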
# [15] = target: Thyrotropin receptor (Homo sapiens) (UniProt P16473); assay: qHTS assay to identify small molecule antagonists of the thyroid stimulating hormone receptor (TSHR) signaling pathway (AID 1259385; calls by dose curve; further: nearly all actives have a fitted effect of over 20% in size); settings: TSHR-HEK293 cAMP HTRF, TSH-stimulated antagonist mode; series mostly up to 92.4 µM
# Sequence of UniProt P16473 (P16473 whole entry, looked up): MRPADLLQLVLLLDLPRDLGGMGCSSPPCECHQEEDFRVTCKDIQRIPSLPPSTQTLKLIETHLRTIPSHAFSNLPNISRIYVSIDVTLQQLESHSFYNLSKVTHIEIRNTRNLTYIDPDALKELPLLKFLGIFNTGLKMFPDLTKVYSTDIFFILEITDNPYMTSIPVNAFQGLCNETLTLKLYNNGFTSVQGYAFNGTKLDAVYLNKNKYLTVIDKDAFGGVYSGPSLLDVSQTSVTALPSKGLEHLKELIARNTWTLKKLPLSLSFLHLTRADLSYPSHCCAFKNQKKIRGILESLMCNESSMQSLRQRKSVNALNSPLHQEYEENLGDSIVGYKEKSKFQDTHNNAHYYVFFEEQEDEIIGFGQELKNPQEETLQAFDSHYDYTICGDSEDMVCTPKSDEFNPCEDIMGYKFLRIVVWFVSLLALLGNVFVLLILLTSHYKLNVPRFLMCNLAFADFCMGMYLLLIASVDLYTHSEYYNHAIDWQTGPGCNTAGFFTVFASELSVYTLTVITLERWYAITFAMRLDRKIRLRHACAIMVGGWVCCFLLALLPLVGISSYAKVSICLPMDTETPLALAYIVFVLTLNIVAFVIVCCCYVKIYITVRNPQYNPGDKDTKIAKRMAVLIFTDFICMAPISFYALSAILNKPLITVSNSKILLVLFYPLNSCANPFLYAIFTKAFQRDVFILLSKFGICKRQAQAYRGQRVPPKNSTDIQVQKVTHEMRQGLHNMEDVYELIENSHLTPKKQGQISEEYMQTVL
# Method in brief: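 TSHR-HEK293 cells (800/well) plated 18 h, then compounds with Ro20-1724 and TSH at 1.5 ng/mL final, 30 min at room temperature. cAMP quantified by HTRF (cAMP-d2/anti-cAMP-cryptate, 1 h); 15 concentrations in triplicate.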
# [16] = Caspase-3/7 induction in HepG2 cells by small molecules, qHTS assay (AID 1346978); settings: HepG2 caspase-3/7 activation, Caspase-Glo luminescence, 17 h; series mostly up to 92.4 µM; further: nearly all actives have a fitted effect of over 15% in size
# Method in brief: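 Wild-type HepG2 cells, 2,000/well, settled 5 hr at 37 C and 5% CO2, then compound-treated for 17 hr; caspase-3/7 activity read by luminescent Caspase-Glo 3/7 after 30 min at room temperature.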
# [17] = qHTS assay to identify small molecule HDAC inhibitors (AID 1259364); settings: HCT-116 HDAC-Glo I/II luminescence, 2 h; series mostly up to 92.4 µM;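 further: wild-type HCT-116 cells with endogenous class I/II HDAC activity; top concentration of the series differs between compounds; nearly all actives have a fitted effect of over 45% in size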
# Method in brief: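 HCT-116 (wild type), 1,500 cells/well, overnight; compound 2 hr 37C 5% CO2; HDAC-Glo I/II reagent 30 min RT; luminescence readout.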
# Tags describe the fitted curve by direction and shape or compound fluorescence and quenching.
smiles,measurement,setting,value
OC/C=C/c1ccccc1,Potency,[1],inactive
CCOC(=O)c1ccccc1O,Potency,[2],inactive
CC/C=C\CC1=C(C)CCC1=O,Potency,[3],inactive
CC1=CC=C(C(C)C)CC1,Potency,[4],inactive
same,Potency,[5],inactive
CC(=O)[C@]1(O)Cc2c(O)c3c(c(O)c2[C@@H](O[C@H]2C[C@H](N)[C@H](O)[C@H](C)O2)C1)C(=O)c1c(O)cccc1C3=O,Potency,[6],"inconclusive: 14.1 µM [fluorescent, single point] and inconclusive: 15.8 µM [fluorescent, single point]"
Cc1cc(/C=C/c2ccc3cc(N(C)C)ccc3[n+]2C)c(C)n1-c1ccccc1,Potency,[7],"inconclusive: 10 µM [rising, partial curve, poor fit]"
same,Potency,[8],"inconclusive: 12.6 µM [fluorescent, partial curve, poor fit]"
same,Potency,[9],"inconclusive: 11.2 µM [fluorescent, partial curve, poor fit]"
same,Potency,[10],"inconclusive: 10 µM [fluorescent, partial curve, poor fit]"
COCc1ccc(COC)cc1,Potency,[11],inactive
same,Potency,[12],"inconclusive: 12.3 µM [cytotoxic, single point]"
CCN1CCN(C(=O)N[C@@H](C(=O)N[C@@H]2C(=O)N3[C@@H]2SC(C)(C)[C@H]3C(=O)O)c2ccccc2)C(=O)C1=O,Potency,[13],inactive
Cc1cccc([N+](=O)[O-])c1C(=O)O,Potency,[14],inactive
CC(=O)CC(=O)N(C)C,Potency,[15],inactive
CC(C)c1ccc(C=O)cc1,Potency,[15],inactive
CC(=O)OC1C2(C)CCC(C2)C1(C)C (stereo not drawn),Potency,[16],inactive
Cc1nc([N+](=O)[O-])cn1-c1ccc([N+](=O)[O-])cc1,Potency,[17],inactive

# Reference: PubChem BioAssay (Tox21)
